The values that follow come from publication PMC4336329 (PLoS ONE, 2015).

Screen size: about 310,000 compounds; about 14,000 (4.5%) showed an effect of 50% or more. The effect is printed as a negative number. The list shows a part of the results.
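Further: peak tail current of the secondary pulse compared with the same well before compound.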

In the assay the target is human ether-à-go-go-related gene (hERG) potassium channel (human, UniProt Q12809). The assay can be described thus: primary screen, population patch clamp on CHO cells stably expressing hERG.
human ether-à-go-go-related gene (hERG) potassium channel, sequence (Q12809 whole entry, looked up): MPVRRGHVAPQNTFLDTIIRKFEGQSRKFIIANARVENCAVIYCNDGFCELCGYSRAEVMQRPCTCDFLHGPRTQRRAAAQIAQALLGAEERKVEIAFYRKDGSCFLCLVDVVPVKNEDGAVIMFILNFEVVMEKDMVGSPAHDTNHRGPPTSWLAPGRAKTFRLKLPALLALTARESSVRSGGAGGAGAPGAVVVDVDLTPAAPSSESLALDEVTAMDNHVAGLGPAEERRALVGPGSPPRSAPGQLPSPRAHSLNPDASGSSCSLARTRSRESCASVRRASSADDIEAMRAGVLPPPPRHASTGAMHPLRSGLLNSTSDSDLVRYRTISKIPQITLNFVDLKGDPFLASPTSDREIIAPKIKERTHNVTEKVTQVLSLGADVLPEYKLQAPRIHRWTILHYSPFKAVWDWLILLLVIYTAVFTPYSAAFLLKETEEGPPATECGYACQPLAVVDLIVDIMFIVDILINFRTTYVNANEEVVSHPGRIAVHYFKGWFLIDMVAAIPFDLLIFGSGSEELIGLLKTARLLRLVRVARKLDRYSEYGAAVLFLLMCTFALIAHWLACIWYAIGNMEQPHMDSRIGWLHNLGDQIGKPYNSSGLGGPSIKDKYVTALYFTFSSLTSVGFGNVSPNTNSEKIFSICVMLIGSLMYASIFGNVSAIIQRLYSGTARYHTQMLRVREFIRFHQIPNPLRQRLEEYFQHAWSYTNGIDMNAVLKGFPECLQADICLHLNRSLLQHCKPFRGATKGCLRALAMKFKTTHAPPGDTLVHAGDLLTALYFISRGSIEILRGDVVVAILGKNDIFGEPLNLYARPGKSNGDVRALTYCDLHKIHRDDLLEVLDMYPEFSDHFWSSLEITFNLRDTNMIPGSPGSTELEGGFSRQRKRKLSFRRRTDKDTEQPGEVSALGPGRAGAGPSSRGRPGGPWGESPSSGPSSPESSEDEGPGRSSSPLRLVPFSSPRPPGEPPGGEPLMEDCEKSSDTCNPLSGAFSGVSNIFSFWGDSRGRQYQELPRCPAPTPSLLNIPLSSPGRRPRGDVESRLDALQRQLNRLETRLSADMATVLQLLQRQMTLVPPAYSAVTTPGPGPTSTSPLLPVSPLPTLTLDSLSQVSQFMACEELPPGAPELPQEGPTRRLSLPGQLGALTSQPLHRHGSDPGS
`Cc1ccc(C(=O)N2c3ccccc3OCC2C)cc1` (centres unmarked): the “hERG current change (%, negative = inhibition) at 10uM” value was found to be 3.36%. Take `COc1ccc(OC)c(S(=O)(=O)N2CCC(C(=O)Nc3ccc(C)c(C)c3)CC2)c1`: the “hERG current change (%, negative = inhibition) at 10uM” value was -9.98%. To `Cc1ccc(C2=[N+]([O-])C(C)(C)CC2)cc1` belongs 14.9%; to `CCC1CN(C)CCC1(OC(C)=O)c1ccccc1.Cl` (centres unmarked), 12.1%. The value for `O=C(COC(=O)c1ccc(S(=O)(=O)N2CCCC2)cc1)Nc1ccc(N2CCOCC2)cc1` was 22.2%; that for `COC(=O)c1ccc(N)cc1O` was 22%; that for `CN1CCN(C(=O)c2ccccc2NC(=O)c2cccc(Cl)c2)CC1` was -10.5%. Take `O=C1C(Cl)=C(NCCCN2CCOCC2)C(=O)N1CCc1ccccc1`: the “hERG current change (%, negative = inhibition) at 10uM” value is listed as -32.6%. The value for `COc1cccc(OC)c1C(=O)NC(C)C12CC3CC(CC(C3)C1)C2` (centres unmarked) was 3.99%; that for `Cc1cc(N2CCCC(C(=O)Nc3cccc(Cl)c3)C2)n2ncnc2n1` (centres unmarked) was -38%. To `CCc1ccc(OC)c(S(=O)(=O)NCc2cccs2)c1` belongs -2.86%; to `Cc1ccc(NC(=O)C2(c3ccccc3)CCOCC2)cc1`, 9.1%; to `Cc1nn(-c2cc(C)c3ccccc3n2)c2c1CCC2`, 2.72%. The value for `CCN(CC)c1ccc(NC(=O)COC(=O)CCC(=O)c2cccs2)cc1` was 5.04%. On to `O=C(Nc1cc(Br)ccc1O)C1CC(c2c(F)cccc2Cl)=NO1` (centres unmarked), for which the “hERG current change (%, negative = inhibition) at 10uM” value was 20.3%.

Regarding `COc1cc(Nc2ncnc(N)n2)cc(OC)c1`, the “hERG current change (%, negative = inhibition) at 10uM” value is reported as 9.91%.

On to `COC(=O)c1ccc(N/C=C/C(=O)c2ccccc2)cc1`, for which the “hERG current change (%, negative = inhibition) at 10uM” value is reported as 22.9%. For the compound `CCOC(=O)c1c(NC(=O)C2c3ccccc3Oc3ccccc32)sc(C(=O)N(CC)CC)c1C`, the “hERG current change (%, negative = inhibition) at 10uM” value stood at 9.09%. To `CC1C(=O)NN=C1C(=O)N/N=C/c1cccs1` (centres unmarked) belongs 17.3%. To `O=C(O)COc1ccc(/C=N/NC(=O)COc2nsnc2N2CCOCC2)cc1` belongs 12%. The value for `CCOc1cc2[nH]c(=S)n(CCCC(=O)NCc3ccco3)c(=O)c2cc1OCC` was -7.08%; that for `CSc1ccccc1OCc1cc(C(=O)N2CCC[C@H]2C(N)=O)no1` was 5.26%; that for `FC(F)(F)c1cc(Oc2ccccc2)nc(-c2ccccn2)n1` was -11.6%. Take `CCN(CC)CCNC(=O)c1cc2ccccc2nc1Cl`: the “hERG current change (%, negative = inhibition) at 10uM” value is 43.4%. To `Cc1cc(C(=O)N/N=C/c2sc(N3CCOCC3)nc2-c2ccccc2)c(C)o1` belongs 8.26%; to `COc1ccc(C(=O)Nn2c(C3CCC3)nc3ccccc3c2=O)c(OC)c1`, -4.75%; to `COc1ccc(CCNC(=O)c2cc(Cl)nc3ccccc23)cc1`, 11.5%.

With `COc1ccc(S(=O)(=O)N2CCCN(Cc3cccc(F)c3)CC2)cc1`, the “hERG current change (%, negative = inhibition) at 10uM” value is listed as -44.6%.

In the case of `COc1ccc(C(=O)NC2CCCc3c2cnn3-c2ccccc2F)cc1OC` (centres unmarked), the “hERG current change (%, negative = inhibition) at 10uM” value amounted to 2.09%. For `CC1(c2nnc(Cc3ccccc3)o2)CC(c2ccccc2[N+](=O)[O-])=NO1` (centres unmarked), the “hERG current change (%, negative = inhibition) at 10uM” value was -27%. In the case of `CC1CCC(NC(=O)CCS(=O)(=O)c2ccc3c(c2)CC(C)N3C(=O)C2CC2)CC1` (centres unmarked), the “hERG current change (%, negative = inhibition) at 10uM” value came to 7.85%. Take `COc1ccc2oc(C)c(C(=O)Cn3ccnc3)c2c1`: the “hERG current change (%, negative = inhibition) at 10uM” value was -39.5%. For `COc1ccc(CCN(Cc2cccs2)S(=O)(=O)c2ccc(S(=O)(=O)N(C)C3CCCCC3)cc2)cc1OC`, the “hERG current change (%, negative = inhibition) at 10uM” value is reported as 2.56%. The value for `COc1ccc(-c2cc(C(=O)N3CCN(Cc4ccc5c(c4)OCO5)CC3)on2)cc1OC` was 2.8%; that for `CCCN(CC(=O)Nc1ccccc1C)C(=O)COC(=O)CSc1ccc([N+](=O)[O-])cc1` was -43.3%. With `CC(C)c1ccc(NC(=O)C(c2ccccc2)N2CCC3(CC2)OCCO3)cc1` (centres unmarked), the “hERG current change (%, negative = inhibition) at 10uM” value is listed as -43.3%.

Take `CC(=O)c1cccc(S(=O)(=O)N2CCCC(c3nc4c(nnn4Cc4ccc(C)cc4)c(=O)[nH]3)C2)c1` (centres unmarked): the “hERG current change (%, negative = inhibition) at 10uM” value amounted to 15.1%. To `COCCNC(=O)Cn1cc(S(=O)(=O)N2CCN(c3ccccc3F)CC2)c2ccccc2c1=O` belongs -2.76%; to `NC(=O)C1CCN(C(=O)C23CC4CC(CC(C4)C2)C3)CC1`, 10.5%. The value for `CCc1ccc(C(C)NC(=S)NCc2ccc(F)cc2)cc1` (centres unmarked) was 12.4%; that for `O=C1OC(Oc2ccccc2)(c2ccccc2)c2ccccc21` (centres unmarked) was -16.2%; that for `Cc1nnc(SCCN2CCOCC2)n1-c1cccc(Cl)c1.O=C(O)C(=O)O` was -4.95%. To `O=C(Nc1nc(-c2cccs2)c(C(=O)C(F)(F)F)s1)c1ccccc1` belongs -2.72%; to `CC(C)(C)OC(=O)N[C@@H](Cc1ccccc1)C(=O)N[C@@H](CO)[C@H](O)[C@@H]1C[C@@H]1C(=O)N1CCCC1`, 22.1%. Regarding `C=CCNC(=O)C1CCC(=O)N1S(=O)(=O)c1ccc(C)cc1` (centres unmarked), the “hERG current change (%, negative = inhibition) at 10uM” value was 20.5%. To `CCc1ccc(-c2nc(CSCC(=O)NCCCN3CCCC3=O)c(C)o2)cc1` belongs -25.4%; to `CC(=O)NN1C(=O)c2ccc(Oc3ccc([N+](=O)[O-])cc3)cc2C1=O`, -13%. As for `CCOC(=O)N/N=C\c1sccc1C`, the “hERG current change (%, negative = inhibition) at 10uM” value was -2.3%. The value for `Cc1ccc(C(=O)N/N=C\c2cc(Br)c(Br)o2)cn1` was 7.04%; that for `CCn1c2ccc(C)cc2c2nnc(NN)nc21` was -22.6%; that for `O=C1CSC(c2ccc(Cl)c(Cl)c2)N1c1nccs1` (centres unmarked) was -1.93%. With `COc1ccc(N/N=C/c2c(C(=O)O)ccc3ccccc23)cc1`, the “hERG current change (%, negative = inhibition) at 10uM” value was -4.8%. To `O=C(CCNC(=O)OCc1ccccc1)NC1CCCCC1` belongs 8.43%; to `O=S(=O)([N-]c1nc2ccccc2nc1-[n+]1ccccc1)c1ccccc1`, 11.5%. Take `O=C(CCNC(=O)c1ccccc1)Nc1nc2ccccc2s1`: the “hERG current change (%, negative = inhibition) at 10uM” value is reported as -3.99%. Regarding `COc1ccc(OCc2nnc(SCC(N)=O)n2-c2ccccc2OC)cc1`, the “hERG current change (%, negative = inhibition) at 10uM” value was -1.78%. Take `Cl.O=C(O)c1ccc(Nc2ncnc3scc(-c4ccccc4)c23)cc1`: the “hERG current change (%, negative = inhibition) at 10uM” value was found to be 20.4%. The value for `FC(F)(F)c1cc(-c2ccco2)nc(NCc2cccnc2)n1` was 1.09%; that for `COc1ccc(CN(C)C2CCN(C)CC2)cc1OC` was 21.8%; that for `O=C(CC1CCCCC1)NCC1CCCO1` (centres unmarked) was 7.02%. To `Cc1ccc(C(=O)N2CCOCC2)cc1Cl` belongs 2.91%; to `Cc1cccc(C)c1NC(=O)CNC(=O)c1cccnc1`, 19.7%; to `O=C(N/N=C/c1ccc2c(c1)OCO2)c1cccc2ccccc12`, 16%.

As to `CCC(=O)N1CCC(C(N)=O)(N2CCCCC2)CC1`, the “hERG current change (%, negative = inhibition) at 10uM” value was found to be 5.69%.

Consider `CC(=O)N(CCC(Cc1ccccc1)c1ccc2c(c1)OCO2)Cc1ccc(Cl)cc1` (centres unmarked), for which the “hERG current change (%, negative = inhibition) at 10uM” value is -17.9%. To `O=[N+]([O-])c1ccccc1/C=C/C=N/n1c(-c2ccco2)n[nH]c1=S` belongs 8.81%. The value for `Cc1ccc(Nc2c(-c3ccc(N4CCOCC4)cc3)nc3ncccn23)cc1C` was 7.71%; that for `Cc1ccc(S(=O)(=O)N(C)C)cc1NC(=S)NC(=O)C12CC3CC(CC(C3)C1)C2` was 10.2%; that for `COc1cccc(CNC(=O)c2cc(S(=O)(=O)N3CCCCC3)c[nH]2)c1` was 21.2%. To `Cc1c(Cl)cccc1NC(=O)CCC(=O)c1cccs1` belongs 10%; to `COc1ccc(N2C(=O)CC(Sc3nc(C)cc(C)n3)C2=O)cc1OC` (centres unmarked), 11.7%; to `O=C(CSc1nccc(=O)[nH]1)Nc1ccc(N2CCOCC2)cc1`, -1.11%. `CC(=O)C1=NN(c2ccccc2)C(c2ccc3c(c2)OCO3)N1c1ccccc1` (centres unmarked): the “hERG current change (%, negative = inhibition) at 10uM” value is recorded as 2.61%. To `Nc1nc(C(F)(F)F)cc(=O)n1N` belongs 3.01%; to `COC(=O)c1ccc(NC(=O)CN2CCN(c3cccc(Cl)c3)CC2)cc1`, -0.592%.

Consider `O=C(NCc1ccc2c(c1)OCO2)C1CC(=O)N(CCc2ccc(F)cc2)C1` (centres unmarked), for which the “hERG current change (%, negative = inhibition) at 10uM” value is on record as -43.1%. With `CCCCn1c(N)c(N(CC(C)C)C(=O)c2ccc(-c3ccc([N+](=O)[O-])cc3)o2)c(=O)[nH]c1=O`, the “hERG current change (%, negative = inhibition) at 10uM” value is reported as -16.3%. The value for `Cc1cc(C)c(OCCNCc2ccccc2)c(C)c1.O=C(O)C(=O)O` was -5.71%. To `CNc1nc(SC)nc(N(C)C#N)n1` belongs 9.47%. In the case of `O=C(NCc1ccc2c(c1)OCO2)C1CC(=O)N(C2CCCCCC2)C1` (centres unmarked), the “hERG current change (%, negative = inhibition) at 10uM” value is reported as -11.3%. The value for `O=[N+]([O-])c1ccc(-c2nc(Nc3ccc(O)cc3)c3ccccc3n2)cc1` was 13%; that for `Cc1cc(NS(=O)(=O)c2ccc(N3C(=O)C4C5C=CC(C5)C4C3=O)cc2)nc(C)n1` (centres unmarked) was 16.8%.

As to `O=C(CN(c1ccc(F)cc1)S(=O)(=O)c1ccc2c(c1)OCCO2)Nc1ccccc1`, the “hERG current change (%, negative = inhibition) at 10uM” value is recorded as -23.6%. For the compound `COc1ccccc1NC(=O)CC12CC3CC(CC(Br)(C3)C1)C2`, the “hERG current change (%, negative = inhibition) at 10uM” value is reported as -4.01%. The value for `CCc1cc2c(=O)c(-c3nc4ccccc4n3C)c(C)oc2c(CN(CC)CC)c1O` was -4.52%. On to `Cc1cc(C(=O)N/N=C/c2ccc(OC(=O)c3ccccc3Br)cc2)n[nH]1`, for which the “hERG current change (%, negative = inhibition) at 10uM” value worked out at 3.23%.

Consider `Cn1c(CNC(=O)c2ccco2)nnc1SCC(=O)Nc1cccc(Br)c1`, for which the “hERG current change (%, negative = inhibition) at 10uM” value is recorded as -34.3%. As for `COc1ccccc1C(=O)Nc1ccc2c(c1)OCO2`, the “hERG current change (%, negative = inhibition) at 10uM” value is on record as -1.04%.

As to `CC(C)(C)OC(=O)NCCCC[C@@H](C(=O)N1CCN(C(=O)OC(C)(C)C)CC1)n1cc(CCC(=O)O)nn1`, the “hERG current change (%, negative = inhibition) at 10uM” value is recorded as 3.83%.
